The source of these data is the supplement of paper PMC12217912.

Sequences and labels used below:
B1: TEV protease; numbered along this chain (parent)
chain: MGESLFKGPRDYNPISSSICHLTNESDGHTTSLYGIGFGPFIITNKHLFRRNNGTLVVQSLHGVFKVKDTTTLQQHLVDGRDMIIIRMPKDFPPFPQKLKFREPQREERICLVTTNFQTKSMSSMVSDTSCTFPSGDGIFWKHWIQTKDGQCGSPLVSTRDGFIVGIHSASNFTNTNNYFTSVPKNFMELLTNQEAQQWVSGWRLNADSVLWGGHKVFMVKPEEPFQPVKEATQL

In this assay the parent is B1. Kind of assay: raw area under fraction-flipped curve 0-4 h after induction (AUC4h, not background-subtracted), DNA-recorder readout of cleavage of the substrate (dimensionless); higher = more cleavage of the substrate by the protease variant. As to conditions: temperature: 34 °C; time window: 0-4 h after rhamnose induction.

The other results are listed elsewhere or left out. The full chains were built here from the parent and the listed change. Inactive controls read about 0.05.
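Further: Bxb1 expression induced with 0.2% (w/v) L-rhamnose at OD600 near 0.5, cultures sampled hourly, flipped fraction per protease–substrate barcode pair counted by paired-end Illumina sequencing.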

For MGESLFKGPRDYNPISSSICHLTNESDGHTTSLYGIGFGPFIITNKHLFRRNNGTLVVQSLHGVFKVKDTTTLQQHLVDGRDMIIIRMPKDFPPFPQKLKFREPQREERICLVTTNFQTKSMSSMVSDTSCTFPSGDGIFWKHWIQTKDGQCGSPLVSTRDGFIVGIHSASNFTNTNNYFTSVVKNFMELLTNQEAQQWVSGWRLNADSVLWGGHKVFMVKPEEPFQPVKEATQL [P184V], the “area with substrate ENLYFCS” value stood at 0.0578, the “area with substrate ENLYFDS” value was 0.0631, the “area with substrate ENLYFES” value amounted to 0.0675 and the “area with substrate ENLYFFS” value amounted to 0.0548. Moreover, the “area with substrate ENLYFIS” value is 0.0433, the “area with substrate ENLYFKS” value was 0.0591, the “area with substrate ENLYFMS” value is 0.0544 and the “area with substrate ENLYFNS” value was 0.0371. In addition, the “area with substrate ENLYFPS” value stood at 0.0602, the “area with substrate ENLYFRS” value was 0.082, the “area with substrate ENLYFVS” value came out at 0.0465 and the “area with substrate ENLYFWS” value worked out at 0.102. In addition, the “area with substrate ENLYFYS” value amounted to 0.0846.

In the case of MGESLFKGPRDYNPISSSICHLTNESDGHTTSLYGIGFGPFIITNKHLFRRNNGTLVVQSLHGVFKVKDTTTLQQHLVDGRDMIIIRMPKDFPPFPQKLKFREPQREERICLVTTNFQTKSMSSMVSDTSCTFPSGDGIFWKHWIQTKDGQCGSPLVSTRDGFIVGIHSASNFTNTNNYFTSVHKNFMELLTNQEAQQWVSGWRLNADSVLWGGHKVFMVKPEEPFQPVKEATQL [P184H], the “area with substrate ENLYFCS” value came to 0.0502, the “area with substrate ENLYFDS” value was found to be 0.061, the “area with substrate ENLYFES” value amounted to 0.0592 and the “area with substrate ENLYFFS” value worked out at 0.0634. The “area with substrate ENLYFHS” value turned out to be 0.0628, the “area with substrate ENLYFKS” value is 0.0567, the “area with substrate ENLYFLS” value stood at 0.056 and the “area with substrate ENLYFMS” value came out at 0.05. For the same variant, the “area with substrate ENLYFRS” value was 0.0607, the “area with substrate ENLYFSS” value stood at 0.0567, the “area with substrate ENLYFTS” value came out at 0.0494 and the “area with substrate ENLYFWS” value came to 0.0377. For the same variant, the “area with substrate ENLYFYS” value was found to be 0.0626.

Take MGESLFKGPRDYNPISSSICHLTNESDGHTTSLYGIGFGPFIITNKHLFRRNNGTLVVQSLHGVFKVKDTTTLQQHLVDGRDMIIIRMPKDFPPFPQKLKFREPQREERICLVTTNFQTKSMSSMVSDTSCTFPSGDGIFWKHRIQTKDGQCGSPLVSTRDGFIVGIHSASNFTNTNNYFTSVPKNFMELLTNQEAQQWVSGWRLNADSVLWGGHKVFMVKPEEPFQPVKEATQL [W144R]: the “area with substrate ENLYFCS” value is 0.0645, the “area with substrate ENLYFDS” value is 0.0627, the “area with substrate ENLYFFS” value turned out to be 0.0763 and the “area with substrate ENLYFGS” value was 0.0633. For the same variant, the “area with substrate ENLYFKS” value was 0.0681, the “area with substrate ENLYFMS” value was 0.0657, the “area with substrate ENLYFNS” value is 0.0586 and the “area with substrate ENLYFPS” value was 0.0659. Moreover, the “area with substrate ENLYFRS” value was found to be 0.0682, the “area with substrate ENLYFTS” value turned out to be 0.0718, the “area with substrate ENLYFWS” value turned out to be 0.0496 and the “area with substrate ENLYFYS” value was determined as 0.049.

On to MGESLFKGPRDYNPISSSICHLTNESDGHTTSLYGIGFGPFIITNKHLFRRNNGTLVVQSLHGVFKVKDTTTLQQHLVDGRDMIIIRMPKDFPPFPQKLKFREPQREERICLVTTNFQTKSMSSMVSDTSCTFPSGDGIFWKHWIQTKDGQCGSPLFSTRDGFIVGIHSASNFTNTNNYFTSVPKNFMELLTNQEAQQWVSGWRLNADSVLWGGHKVFMVKPEEPFQPVKEATQL [V157F], for which the “area with substrate ENLYFCS” value was 0.0481, the “area with substrate ENLYFDS” value was 0.0539, the “area with substrate ENLYFES” value was 0.0462 and the “area with substrate ENLYFFS” value turned out to be 0.0588. For the same variant, the “area with substrate ENLYFGS” value came to 0.0429, the “area with substrate ENLYFIS” value was 0.048, the “area with substrate ENLYFKS” value amounted to 0.0591 and the “area with substrate ENLYFMS” value worked out at 0.0572. In addition, the “area with substrate ENLYFNS” value turned out to be 0.0431, the “area with substrate ENLYFPS” value worked out at 0.0714, the “area with substrate ENLYFSS” value was determined as 0.0656 and the “area with substrate ENLYFTS” value is 0.0582. In addition, the “area with substrate ENLYFWS” value is 0.047.

MGESLFKGPRDYNPISSSICHLTNESDGHTTSLYGIGFGPFIITNKHLFRRNNGTLVVQSLHGVFKVKDTTTLQQHLVDGRDMIIIRMPKDFPPFPQKLKFREPQREERICLVTTNFQTKSMSSMVSDTSCTFPSGDGIFWKHWIQTKDGQKGSPLVSTRDGFIVGIHSASNFTNTNNYFTSVPKNFMELLTNQEAQQWVSGWRLNADSVLWGGHKVFMVKPEEPFQPVKEATQL [C152K]: the “area with substrate ENLYFCS” value turned out to be 0.061, the “area with substrate ENLYFFS” value is 0.0759, the “area with substrate ENLYFHS” value is 0.0548 and the “area with substrate ENLYFIS” value came out at 0.0632. Moreover, the “area with substrate ENLYFLS” value was found to be 0.0614, the “area with substrate ENLYFMS” value was determined as 0.0675, the “area with substrate ENLYFNS” value is 0.0538 and the “area with substrate ENLYFPS” value is 0.0481. Further, the “area with substrate ENLYFVS” value was 0.0485.

For the variant MGESLFKGPRDYNPISSSICHLTNESDGHTTSLYGIGFGPFIITNKHLFRRNNGTLVVQSLHGVFKVKDTTTLQQHLVDGRDMIIIRMPKDFPPFPQKLKFREPQREERICLVTTNFQTKSMSSMVSDTSCTFPSGDGIFWKHWIQTKDGQDGSPLVSTRDGFIVGIHSASNFTNTNNYFTSVPKNFMELLTNQEAQQWVSGWRLNADSVLWGGHKVFMVKPEEPFQPVKEATQL [C152D], the “area with substrate ENLYFCS” value is 0.0661, the “area with substrate ENLYFES” value is 0.0699, the “area with substrate ENLYFIS” value was determined as 0.0545 and the “area with substrate ENLYFKS” value is 0.0648. Besides, the “area with substrate ENLYFSS” value worked out at 0.0593, the “area with substrate ENLYFTS” value came out at 0.0304, the “area with substrate ENLYFVS” value was found to be 0.082 and the “area with substrate ENLYFWS” value was 0.048. Further, the “area with substrate ENLYFYS” value worked out at 0.0534.

For MGESLFKGPRDYNPISSSICHLTNESDGHTTSLYGIGFGPFIITNKHLFRRNNGTLVVQSLHGVFKVKDTTTLQQHLVDGRDMIIIRMPKDFPPFPQKLKFREPQREERICLVTTNFQTKSMSSMVSDTSCTFPSGDGIFWKHWIQTKDGQFGSPLVSTRDGFIVGIHSASNFTNTNNYFTSVPKNFMELLTNQEAQQWVSGWRLNADSVLWGGHKVFMVKPEEPFQPVKEATQL [C152F], the “area with substrate ENLYFCS” value amounted to 0.0574, the “area with substrate ENLYFDS” value was found to be 0.052, the “area with substrate ENLYFES” value came to 0.0627 and the “area with substrate ENLYFFS” value came to 0.0755. Moreover, the “area with substrate ENLYFHS” value was 0.058, the “area with substrate ENLYFIS” value is 0.0603, the “area with substrate ENLYFKS” value stood at 0.0599 and the “area with substrate ENLYFMS” value was found to be 0.0558. Also, the “area with substrate ENLYFNS” value amounted to 0.051, the “area with substrate ENLYFPS” value amounted to 0.0541, the “area with substrate ENLYFSS” value was determined as 0.051 and the “area with substrate ENLYFTS” value came out at 0.0508. The “area with substrate ENLYFVS” value turned out to be 0.0489 and the “area with substrate ENLYFWS” value was 0.0625.

As to MGESLFKGPRDYNPISSSICHLTNESDGHTTSLYGIGFGPFIITNKHLFRRNNGTLVVQSLHGVFKVKDTTTLQQHLVDGRDMIIIRMPKDFPPFPQKLKFREPQREERICLVTTNFQTKSMSSMVSKTSCTFPSGDGIFWKHWIQTKDGQCGSPLVSTRDGFIVGIHSASNFTNTNNYFTSVPKNFMELLTNQEAQQWVSGWRLNADSVLWGGHKVFMVKPEEPFQPVKEATQL [D128K], the “area with substrate ENLYFCS” value turned out to be 0.0562, the “area with substrate ENLYFFS” value is 0.0742, the “area with substrate ENLYFGS” value turned out to be 0.0642 and the “area with substrate ENLYFHS” value turned out to be 0.0629. Further, the “area with substrate ENLYFIS” value came to 0.0653, the “area with substrate ENLYFMS” value turned out to be 0.0693, the “area with substrate ENLYFPS” value turned out to be 0.0619 and the “area with substrate ENLYFTS” value amounted to 0.0465.

As to MGESLFKGPRDYNPISSSICHLTNESDGHTTSLYGIGFGPFIITNKHLFRRNNGTLVVQSLHGVFKVKDTTTLQQHLVDGRDMIIIRMPKDFPPFPQKLKFREPQREERICLVTTNFQTKSMSSMVSFTSCTFPSGDGIFWKHWIQTKDGQCGSPLVSTRDGFIVGIHSASNFTNTNNYFTSVPKNFMELLTNQEAQQWVSGWRLNADSVLWGGHKVFMVKPEEPFQPVKEATQL [D128F], the “area with substrate ENLYFCS” value worked out at 0.0609, the “area with substrate ENLYFDS” value was determined as 0.0436, the “area with substrate ENLYFES” value was 0.0741 and the “area with substrate ENLYFFS” value was found to be 0.0718. Also, the “area with substrate ENLYFHS” value worked out at 0.0638, the “area with substrate ENLYFIS” value worked out at 0.0612, the “area with substrate ENLYFMS” value is 0.0701 and the “area with substrate ENLYFPS” value was 0.0662. The “area with substrate ENLYFSS” value amounted to 0.058, the “area with substrate ENLYFTS” value came out at 0.0592, the “area with substrate ENLYFVS” value turned out to be 0.054 and the “area with substrate ENLYFWS” value is 0.0461. The “area with substrate ENLYFYS” value came to 0.0632.

Regarding MGESLFKGPRDYNPISSSICHLTNESDGHTTSLYGIGFGPFIITNKHLFRRNNGTLVVQSLHGVFKVKDTTTLQQHLVDGRDMIIIRMPKDFPPFPQKLKFREPQREERICLVTTNFQTKSMSSMVSATSCTFPSGDGIFWKHWIQTKDGQCGSPLVSTRDGFIVGIHSASNFTNTNNYFTSVPKNFMELLTNQEAQQWVSGWRLNADSVLWGGHKVFMVKPEEPFQPVKEATQL [D128A], the “area with substrate ENLYFCS” value amounted to 0.0653, the “area with substrate ENLYFES” value is 0.0652, the “area with substrate ENLYFFS” value stood at 0.0733 and the “area with substrate ENLYFHS” value was 0.0564. Besides, the “area with substrate ENLYFIS” value was 0.0619, the “area with substrate ENLYFMS” value is 0.0614, the “area with substrate ENLYFNS” value came to 0.0627 and the “area with substrate ENLYFPS” value was determined as 0.0576. For the same variant, the “area with substrate ENLYFRS” value turned out to be 0.0584, the “area with substrate ENLYFSS” value stood at 0.0723, the “area with substrate ENLYFTS” value came to 0.0605 and the “area with substrate ENLYFWS” value worked out at 0.0607. The “area with substrate ENLYFYS” value was found to be 0.0672.
